These results are taken from the antibiotic and cytotoxicity screens of Wong et al. (2023).

The other results are listed elsewhere or left out.

The test system of one experiment is HSkMC. Description: cytotoxicity call (relative viability < 0.9). The settings on record: 10 µM.
The next experiment deals with HepG2. Description: cytotoxicity call (relative viability < 0.9). The conditions noted are these: 10 µM.
A further experiment deals with S. aureus RN4220. Description: growth inhibition call (relative growth <= 0.2). The conditions noted are these: 50 µM.

For `C[C@H](CO)N1C[C@H](C)[C@H](CN(C)S(C)(=O)=O)Oc2ccc(NS(=O)(=O)c3ccc(F)cc3)cc2C1=O`, the cytotoxicity call in the experiment on HSkMC and in the experiment on HepG2 was “inactive” in each case. In addition, the growth inhibition call in the experiment with S. aureus RN4220 was “inactive”.
Turning to `O=C(C[C@H]1CC[C@H]2[C@@H](COC[C@@H](O)CN2Cc2cc(F)ccc2F)O1)N[C@H]1CCN(Cc2ccccc2)C1`, in the experiment with HSkMC, the cytotoxicity call was “inactive”. In addition, in the experiment on HepG2, the cytotoxicity call was “active”. The growth inhibition call in the experiment on S. aureus RN4220 is “inactive”.
As to `O=S(=O)(Cc1nn[nH]n1)c1ccccc1`, the cytotoxicity call in the experiment with HSkMC and with HepG2 was “inactive” each time. Besides, in the experiment with S. aureus RN4220, the growth inhibition call is “inactive”.
As to `C[C@@H]1CCCCO[C@H](CN(C)C(=O)Nc2ccc(F)cc2)[C@@H](C)CN([C@H](C)CO)C(=O)c2cc(NC(=O)Nc3cccc4ccccc34)ccc2O1`, the cytotoxicity call in the experiment on HSkMC and with HepG2 was “inactive” each time. Further, the growth inhibition call in the experiment with S. aureus RN4220 is “inactive”.
Consider `C[C@@H]1CN([C@@H](C)CO)C(=O)c2cc(NS(C)(=O)=O)ccc2O[C@@H](C)CCCCO[C@@H]1CN(C)Cc1ccncc1`, for which the cytotoxicity call in the experiment with HSkMC and with HepG2 was “inactive” in each case. In addition, the growth inhibition call in the experiment on S. aureus RN4220 is “inactive”.
With `CSc1ncc(C(=O)NN)n1C`, the cytotoxicity call with HSkMC and in the experiment with HepG2 was “inactive” throughout. For the same molecule, the growth inhibition call with S. aureus RN4220 is “inactive”.
Turning to `C=CCOC(=O)[C@H]1[C@@H]2C(=O)O[C@@H](c3ccccc3)[C@@H](c3ccccc3)N2[C@@H](c2ccc(OCCOC(=O)[C@@H]3C[C@@H]4C(=O)N[C@@H](CCCCNC(C)=O)C(=O)N4[C@@H]3c3ccc(O)cc3)cc2)[C@]12C(=O)Nc1ccccc12`, the cytotoxicity call in the experiment with HSkMC and in the experiment with HepG2 was “inactive” throughout. Further, the growth inhibition call in the experiment with S. aureus RN4220 is “inactive”.
Consider `CC(C)[Si](C#Cc1ccc(Oc2ccccc2)cc1)(O[Si](C#Cc1ccc(Oc2ccccc2)cc1)(C(C)C)C(C)C)C(C)C`, for which the cytotoxicity call with HSkMC and in the experiment with HepG2 was “inactive” each time. Besides, the growth inhibition call with S. aureus RN4220 was “inactive”.
Regarding `NC(=O)NCCC[C@H](N)C(=O)O`, the cytotoxicity call in the experiment on HSkMC and in the experiment on HepG2 was “inactive” each time. For the same molecule, the growth inhibition call in the experiment on S. aureus RN4220 was “inactive”.
For the molecule `COc1ccc(NC(=O)Nc2ccc3c(c2)C(=O)N([C@@H](C)CO)C[C@@H](C)[C@H](CN(C)Cc2ccc4c(c2)OCO4)OCCCC[C@H](C)O3)cc1`, the cytotoxicity call in the experiment on HSkMC and in the experiment with HepG2 was “inactive” in each case. Also, the growth inhibition call with S. aureus RN4220 is “inactive”.
On to `Cc1ccc(S(=O)(=O)N(C)C[C@@H]2OCCCC[C@@H](C)Oc3ccc(NC(=O)Nc4ccccc4)cc3C(=O)N([C@@H](C)CO)C[C@@H]2C)cc1`, for which the cytotoxicity call in the experiment with HSkMC and with HepG2 was “inactive” each time. For the same molecule, the growth inhibition call with S. aureus RN4220 is “inactive”.
With `C[C@H]1CN([C@@H](C)CO)C(=O)c2cc(NC(=O)Nc3ccc(C(F)(F)F)cc3)ccc2O[C@@H]1CN(C)Cc1ccc(C(F)(F)F)cc1`, the cytotoxicity call in the experiment with HSkMC and with HepG2 was “active” throughout. In the experiment on S. aureus RN4220, the growth inhibition call was “inactive”.
Regarding `N#Cc1c(N)n(CCN)c2nc3ccccc3nc12`, the cytotoxicity call in the experiment on HSkMC and in the experiment on HepG2 was “inactive” in each case. In the experiment with S. aureus RN4220, the growth inhibition call was “inactive”.
Consider `Cc1noc(C)c1NC(=O)N(C)C[C@H]1Oc2ccc(NS(C)(=O)=O)cc2C(=O)N([C@H](C)CO)C[C@@H]1C`, for which the cytotoxicity call in the experiment on HSkMC and with HepG2 was “inactive” throughout. Moreover, in the experiment on S. aureus RN4220, the growth inhibition call was “inactive”.
For `COc1ccc(CN(C)C[C@H]2OCCCC[C@@H](C)Oc3ccc(NC(=O)Nc4ccc(C(F)(F)F)cc4)cc3C(=O)N([C@H](C)CO)C[C@H]2C)cc1`, the cytotoxicity call with HSkMC and with HepG2 was “active” in each case. In the experiment with S. aureus RN4220, the growth inhibition call was “inactive”.
With `CN(C)c1nc(NCCO)c2cnn(C)c2n1`, the cytotoxicity call in the experiment on HSkMC and in the experiment on HepG2 was “inactive” in each case. Besides, the growth inhibition call with S. aureus RN4220 is “inactive”.
Take `COc1ccc(S(=O)(=O)N2C[C@@H](O)COC[C@H]3O[C@@H](CC(=O)NCCCN4CCOCC4)CC[C@@H]32)cc1`: the cytotoxicity call in the experiment with HSkMC and with HepG2 was “inactive” throughout. Moreover, in the experiment with S. aureus RN4220, the growth inhibition call is “inactive”.
On to `Cc1noc(C)c1NC(=O)N(C)C[C@@H]1Oc2ncc(C#CCN(C)C)cc2C(=O)N([C@H](C)CO)C[C@H]1C`, for which the cytotoxicity call in the experiment on HSkMC and with HepG2 was “inactive” each time. Also, the growth inhibition call in the experiment with S. aureus RN4220 is “inactive”.
For `Cc1noc(C)c1NC(=O)N(C)C[C@@H]1Oc2ccc(NS(=O)(=O)c3cccs3)cc2CC(=O)N([C@@H](C)CO)C[C@@H]1C`, the cytotoxicity call with HSkMC and in the experiment on HepG2 was “inactive” each time. Also, the growth inhibition call with S. aureus RN4220 is “inactive”.
On to `C[C@H](CO)N1C[C@H](C)[C@@H](CN(C)C(=O)C2CCCCC2)OCCCC[C@H](C)Oc2ccc(NS(=O)(=O)c3ccccc3)cc2C1=O`, for which the cytotoxicity call in the experiment on HSkMC and in the experiment on HepG2 was “inactive” each time. Further, the growth inhibition call in the experiment on S. aureus RN4220 was “inactive”.
As to `COc1ccc(S(=O)(=O)N(C)C[C@H]2Oc3c(NS(C)(=O)=O)cccc3C(=O)N([C@@H](C)CO)C[C@H]2C)cc1`, the cytotoxicity call in the experiment on HSkMC and with HepG2 was “inactive” each time. In addition, the growth inhibition call with S. aureus RN4220 was “inactive”.
Regarding `COc1ccc(NC(=O)Nc2ccc3c(c2)C(=O)N([C@@H](C)CO)C[C@@H](C)[C@@H](CN(C)Cc2ccc(C(=O)O)cc2)OCCCC[C@H](C)O3)cc1`, the cytotoxicity call in the experiment on HSkMC and in the experiment on HepG2 was “inactive” throughout. The growth inhibition call in the experiment on S. aureus RN4220 is “inactive”.
Turning to `C[C@@H]1CN([C@H](C)CO)S(=O)(=O)c2ccc(C#CC(C)(C)O)cc2O[C@@H]1CN(C)C(=O)CN(C)C`, the cytotoxicity call in the experiment with HSkMC and in the experiment on HepG2 was “inactive” in each case. Also, in the experiment with S. aureus RN4220, the growth inhibition call was “inactive”.
For `C[C@@H]1CN([C@H](C)CO)C(=O)c2cc(NC(=O)c3ccncc3)ccc2O[C@@H](C)CCCCO[C@@H]1CN(C)S(=O)(=O)c1ccc(Cl)cc1`, the cytotoxicity call with HSkMC and in the experiment on HepG2 was “inactive” each time. For the same molecule, in the experiment on S. aureus RN4220, the growth inhibition call is “inactive”.
In the case of `COc1ccc(S(=O)(=O)N(C)C[C@@H]2Oc3cc(C4=CCCC4)ccc3S(=O)(=O)N([C@H](C)CO)C[C@@H]2C)cc1`, the cytotoxicity call in the experiment on HSkMC (human skeletal muscle cells) and in the experiment with HepG2 was “inactive” in each case. Further, the growth inhibition call in the experiment with S. aureus RN4220 was “inactive”.
